# Reference: the supplement of paper PMC3334620
# Whole data set: some 33,000 sequences, median “E-score (-0.5 to 0.5)” near -0.016, cut for the highest 2% near 0.32. The list shows a part of the results.
# Target: T1, Stp1 (UniProt B3LFK1)
# T1 sequence: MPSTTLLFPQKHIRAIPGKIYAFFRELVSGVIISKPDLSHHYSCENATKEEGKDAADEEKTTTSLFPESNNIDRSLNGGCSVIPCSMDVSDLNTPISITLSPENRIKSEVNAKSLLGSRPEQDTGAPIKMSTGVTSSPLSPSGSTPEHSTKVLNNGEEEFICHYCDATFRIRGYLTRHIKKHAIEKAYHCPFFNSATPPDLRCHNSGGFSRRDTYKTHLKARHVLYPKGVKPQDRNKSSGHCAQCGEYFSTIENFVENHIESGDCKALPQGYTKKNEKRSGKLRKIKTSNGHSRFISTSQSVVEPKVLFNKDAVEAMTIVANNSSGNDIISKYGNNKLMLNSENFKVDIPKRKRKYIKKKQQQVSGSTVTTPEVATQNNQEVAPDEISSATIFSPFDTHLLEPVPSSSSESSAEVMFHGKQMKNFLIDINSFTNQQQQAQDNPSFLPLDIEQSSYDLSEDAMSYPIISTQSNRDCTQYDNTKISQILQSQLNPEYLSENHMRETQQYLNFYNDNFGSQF
# Assay: PBM E-score (8-mer binding enrichment) (E-score (-0.5 to 0.5)); higher = stronger / more preferred TF binding; most listed sequences are background and not binding sites
# Details: protein concentration: 200 nM; construct: GST-full length
# Procedure, shortened: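 For each ungapped eight-base word taken together with its reverse complement, the Universal PBM Analysis Suite assigned an E-score. Binding data came from GST-tagged yeast transcription factors, applied at about 100-200 nM, on universal all-10-mer Agilent arrays made double-stranded by primer extension. Fluorescent anti-GST marked bound protein, and scans were normalised with masliner.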
row,Sequence,PBM E-score
1,GTTCCCCA,-0.118
2,TAGGAACA,-0.0153
3,GCGAAATA,0.112
4,AACGCGTC,-0.0176
5,CAACAGAG,-0.0194
6,AAAACATC,0.00481
7,CTGTGGGC,-0.0689
8,GGCACCGA,0.356
9,CCATACCC,-0.144
10,CGGAGACA,0.0351
11,AGGAGGGC,-0.243
12,CTGGGAGC,-0.274
13,CCATTCCA,0.0856
14,AAAATTCG,0.193
15,AATCGCGC,0.246
16,CCCCCGGA,-0.389
17,ACCCTTAT,0.0536
18,CGCGGTGA,0.0941
19,GAAGCAAC,-0.0277
20,CTAGTACA,0.0255
21,GGCTATTA,0.223
22,AGGTGAGA,-0.0297
23,ATCCGAAC,-0.0234
24,AGCTTTCC,-0.00378
25,AGAGCCGA,0.225

row,Sequence,PBM E-score
1,AAACAGCG,0.0786
2,GTGGACGA,-0.00073
3,ACCACGAA,-0.137
4,ACGTGATG,-0.0504
5,CGTACCAA,0.0997
6,CTCTGTGA,-0.0746
7,ATGGATAA,0.0972
8,CATGTAGG,-0.00116
9,AGGGAATC,-0.198
10,ATAACGAT,-0.129
11,GACTATTA,0.0464
12,TTTAAAAA,0.0991
13,CTCACTGC,0.00787
14,AGGAAAAC,0.0148
15,ATGGCAGC,0.00395
16,CATACGGG,0.224
17,CAAGTATA,-0.137
18,CACGGAGG,-0.0175
19,AAATACTG,0.0916
20,ACTGCGCG,-0.00393
21,AGGGAAGA,-0.0806
22,AGCCGTCG,0.25
23,AGAGTGGG,-0.0334
24,ACTTCCGC,-0.073
25,CAGTTGGG,-0.0275

row,Sequence,PBM E-score
1,ATAATCGA,0.0249
2,CAGTTCCC,0.0354
3,AGTTTCAC,0.0233
4,CGCTGGAC,0.0348
5,CAGACTAG,-0.133
6,CCATCGAA,-0.0768
7,CACCAGTG,0.0209
8,ACGGCTGC,0.289
9,CTCAGGAG,-0.0115
10,ACCTGTGG,-0.234
11,CTATTGCA,0.101
12,CGCAGTCA,-0.175
13,ACATGACT,-0.113
14,ACGCATAC,0.0313
15,ACCGTCGC,0.0157
16,AAAATGAC,0.00804
17,ACCCTCGA,-0.202
18,AAGCTGTA,0.134
19,ATTGAGCA,-0.13
20,GTACAAGA,-0.041
21,AGCTGTTA,-0.0528
22,CAAATAGA,0.0398
23,CTCCTAGA,-0.0773
24,AGAACCCT,-0.25
25,TCCGACGA,0.00954

row,Sequence,PBM E-score
1,TGCGTCAA,-0.142
2,CAATTCCC,-0.024
3,CATTGCAC,0.0819
4,AACCTAGC,-0.264
5,CCGTTGGA,0.0306
6,AGAGAGAG,-0.162
7,ATAACCCA,-0.0713
8,GATTGTCA,-0.0226
9,CGGAGGGC,-0.0519
10,ACATTAAT,0.0799
11,CTTCAATC,0.0211
12,AAATTCAG,0.0646
13,CCATAGGA,-0.0698
14,TCCAGGAA,-0.158
15,CTTTTGCA,0.212
16,ACCAATAA,0.178
17,CTGCGTAA,-0.0102
18,CACCCAAA,0.184
19,GTCGGAGA,-0.0754
20,ACTGCTGC,-0.0596
21,TCGCAAGA,-0.146
22,TCCCCTAA,-0.121
23,CTTGACGC,-0.0146
24,AGTCAGCG,-0.304
25,GAACCACC,-0.0044

row,Sequence,PBM E-score
1,GTGCAAAA,0.127
2,ATCCAGAG,0.0478
3,CAGGTATA,-0.083
4,AAGATAGA,0.0263
5,CATATCAA,0.238
6,CGCTAGGC,0.0429
7,GGCCCCAA,-0.11
8,AAGTCAGG,-0.181
9,TACGTACA,0.122
10,ACTTGCGG,-0.085
11,ACCAGCTG,-0.224
12,AGGTACGC,0.0567
13,GCTTCGCC,-0.0679
14,CCTTATCG,0.105
15,AACGCTGG,-0.13
16,ACGTATTC,0.125
17,AGCCGAAT,0.222
18,CTCCCCAC,-0.373
19,CTAGCGGA,-0.0753
20,GTAAACCA,-0.0263
21,CACGCGGG,0.143
22,CGAGGCTC,0.131
23,ATTCGTAG,0.107
24,AACCGAGA,-0.105
25,AGTAATGC,0.0704

row,Sequence,PBM E-score
1,ATCCTCTA,-0.125
2,GGTAAGAA,-0.318
3,ATTTTCAG,0.138
4,TCGACAAA,0.0854
5,GCTAGCCC,-0.29
6,CCGTGCGC,0.433
7,CGTGTGCC,0.205
8,GCAGCCCC,-0.049
9,ATGGCGCG,0.196
10,AGGAGACC,-0.227
11,CATGATGC,0.0936
12,AACGTCGG,-0.227
13,ATAGCTTA,0.0278
14,ATGGCTAG,0.0312
15,CAACTCAG,-0.0903
16,AGATGCAT,-0.13
17,ACCTTACG,0.159
18,GGATATTA,0.0838
19,GTGTCGTA,0.0455
20,ACCGGTAA,-0.136
21,AATTATTG,0.173
22,GAGGAGGA,-0.334
23,CCCTGCCG,0.161
24,CTCTCAGA,0.0187
25,ACTCGTGG,-0.0658

row,Sequence,PBM E-score
1,CAGATAAC,-0.0126
2,CCTATTAA,0.0196
3,AATATGAC,-0.0274
4,AGCCAATG,-0.113
5,ACCGTTAG,0.0519
6,CTTAAGCA,-0.0469
7,ATTTCTGC,0.245
8,AGAGAGGA,-0.195
9,GCCGTACA,0.459
10,CCCGCATA,0.21
11,AAACAACC,0.0506
12,GTTAGAAA,0.0629
13,AAAGAGTT,-0.175
14,GTGAGAAA,0.128
15,CCGCCAAC,-0.223
16,CCACGGGG,-0.124
17,AACTTGGT,0.146
18,ACCTCCAT,-0.119
19,CCCGTTCG,0.0486
20,AGACTGAA,-0.0951
21,AAAGTCCG,-0.0409
22,CGTATCAG,0.143
